The list shows a part of the results.
B1: 109382605_109382725_5796_CDS_ENSG00000153201_ENST00000283195|human|control|control (ssRNA)
RNA: GGGAGUUCUACAGUCCGACGAUCCUUUUCUUGAUUUCCUGGUUCCGAAAUGCCAAAUUUAAAUCCAUCAGCAGACACAGGGAUGGAAAAUCCUUCUUUGGUUGACUUAAAUUCUGUAUUAGAAGAACCCUGAAACAUAAAUGACAACAGAGGAUUGAGCAUCA
B2: chr1:39494564:39494565:+_ENSG00000168653_ENST00000372967|hu_hu|hu_hu_hu_mus_True|38_38 (ssRNA)
RNA: GGGAGUUCUACAGUCCGACGAUCAUGCAUUCGCCUCAUCGUUUUGUACCGAAGCAAGCACUCUUCGAAGUCAUCGAACUCUAUCUUGCACUCCUUUUCUGCCCGAGUCCCACCGAUCCCGUGUGCACACUCUAUCCACUCUUUCAACAGAGGAUUGAGCAUCA
B3: 122463516_122464057_2619_3pUTR_ENSMUSG00000034602_ENSMUST00000073792|mouse|control|control (ssRNA)
RNA: GGGAGUUCUACAGUCCGACGAUCCUUUAGUCCCAGAAUCCACACAAGAUGCUGAAGAGUUGCCAGAACAAGUUGCCAUGAUGUUCCAAGAACAGCGCCGUGACAGUGGGCCAAGUUCAGCAGAGUCCUCAUGCACUGAAUAUUCAACAGAGGAUUGAGCAUCA
B4: chr14:78183846:78183847:+_ENSG00000119705_ENST00000557342|hu_hu|hu_hu_hu_mus_False|1_28 (ssRNA)
RNA: GGGAGUUCUACAGUCCGACGAUCUCUCAGAAAUCUUUCUUCAUCAGAUGUUUGAGCUCCGUGCAAAGCCUUUGCUCUUUGAGCUUGAACGUGGAUCUAUGGGAGGGCUAUAAUAUGCAGAAAAGGUAAUUUUUUUUUCCGAAGCAACAGAGGAUUGAGCAUCA
B5: chr2:173429262:173429263:+_ENSG00000152256_ENST00000410055|hu_mus|FALSE|FALSE (ssRNA)
RNA: GGGAGUUCUACAGUCCGACGAUCGCUCUCCUUGUAUUCAGUCACACCCUGGGCCAUGGUGGGAAUGACAUCAUUGUGCCGGUUUCUGAUCCUUAUCACUGUGUCUGUGAAUUCAUAAAUAGUUUUAGCAUCUUCAGCACUUUUCAACAGAGGAUUGAGCAUCA
B6: chr4:140556289:140556290:+_ENSMUSG00000036622_ENSMUST00000037055|mus_mus|mus_mus_mus_hu_False|38_88 (ssRNA)
RNA: GGGAGUUCUACAGUCCGACGAUCGAUGGAGCUCACCAGGCCCCCUUUGGCUGUGCAGAACCCUGUGCGGGUCACCACUGCCAGGACGUGCGGUCCCACGUAGGCUCGGGCCUGCAAGAUGAGGGUCCCGCAGAAGAGUGUGUGCAACAGAGGAUUGAGCAUCA

molecular target: T1, UNK ZnF1-3 (human, UniProt Q9C0B0 31-174); experiment: nsRBNS (natural sequence RNA bind-n-seq); RBNS binding buffer (assumed for nsRBNS): 25 mM Tris pH 7.5, 150 mM KCl, 3 mM MgCl2, 0.01% Triton X-100, 500 ug/ml BSA, 20 U/ml SUPERase-In, 4 C; UNK is unkempt and MSI1 is Musashi-1; names of the RNAs are library labels; protein concentration not given here; high values mean tight binding
T1 sequence: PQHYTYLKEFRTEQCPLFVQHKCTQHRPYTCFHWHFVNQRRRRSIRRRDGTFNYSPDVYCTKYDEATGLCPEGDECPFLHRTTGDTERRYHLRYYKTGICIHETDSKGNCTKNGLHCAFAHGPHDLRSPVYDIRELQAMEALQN

Row | Binder | binding signal [enrichment R]
1 | B1 | 0.601
2 | B2 | 0.675
3 | B3 | 1.02
4 | B4 | 1.31
5 | B5 | 0.853
6 | B6 | 1.02
